The supplement of paper PMC4604168 (melanoma cell lines)
The other results are listed elsewhere or left out. Repeats are few or missing, and single values can be far off.

What was measured:
Assay in all cases: cell count relative to DMSO control; melanoma cells; higher = more viable cells
Settings in all cases: library dose: standard library concentration; 72 h
[1] = tested on: G361
[2] = tested on: IPC-298
[3] = tested on: IST-MEL1
[4] = tested on: LB2518-MEL
[5] = tested on: LOXIMVI
[6] = tested on: MEL-HO
[7] = tested on: MZ2-MEL
[8] = tested on: MeWo
[9] = tested on: RPMI7951
[10] = tested on: RVH-421
[11] = tested on: SkMel28
[12] = tested on: SkMel2
[13] = tested on: SkMel30
[14] = tested on: SkMel5
[15] = tested on: UACC257
[16] = tested on: UACC62
[17] = tested on: WM115
[18] = tested on: WM1716
[19] = tested on: WM1745
[20] = tested on: WM3526
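Also: cells treated in 1,536-well plates, then fixed and DAPI-stained, with nuclei counted from automated high-throughput microscope images.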

| SMILES | cell count [1] | cell count [2] | cell count [3] | cell count [4] | cell count [5] | cell count [6] | cell count [7] | cell count [8] | cell count [9] | cell count [10] | cell count [11] | cell count [12] | cell count [13] | cell count [14] | cell count [15] | cell count [16] | cell count [17] | cell count [18] | cell count [19] | cell count [20] |
| --- | --- | --- | --- | --- | --- | --- | --- | --- | --- | --- | --- | --- | --- | --- | --- | --- | --- | --- | --- | --- |
| C[C@@H](Oc1cc(-c2cnn(C3CCNCC3)c2)cnc1N)c1c(Cl)ccc(F)c1Cl [Crizotinib] + C[As](C)SC[C@H](NC(=O)CC[C@H](N)C(=O)O)C(=O)NCC(=O)O [Darinaparsin] (first compound 1 µM, partner dose 2 µM) | 96.3% | 112% | 102% | 89.6% | 158% | 102% | 104% | 84.8% | 87% | 80.4% | 74.2% | 103% | 96% | 69.7% | 82.1% | 85.2% | 66.1% | 75.2% | 69.3% | 65.6% |
| CN(c1ncccc1CNc1nc(Nc2ccc3c(c2)CC(=O)N3)ncc1C(F)(F)F)S(C)(=O)=O + C[As](C)SC[C@H](NC(=O)CC[C@H](N)C(=O)O)C(=O)NCC(=O)O [Darinaparsin] (first compound 0.4 µM, partner dose 2 µM) | 74.2% | 85.8% | 79.9% | 78.3% | 101% | 81.5% | 79.4% | 88.1% | 91.7% | 71.9% | 59.5% | 86.7% | 99.5% | 53.2% | 69.5% | 55% | 77.2% | 83.6% | 66.9% | 92.2% |
| NCC(=O)Nc1ccc(-n2nc(C(F)(F)F)cc2-c2ccc3c(ccc4ccccc43)c2)cc1 + O=C(Oc1ccc([N+](=O)[O-])cc1)N1CCC(C(O)(c2ccc3c(c2)OCO3)c2ccc3c(c2)OCO3)CC1 [JZL184] (first compound 5 µM, partner dose 5 µM) | 86% | 61.1% | 90.5% | 97% | 99% | 91.5% | 112% | 80.3% | 82.1% | 89.4% | 18% | 53.4% | 47.7% | 58.4% | 103% | 70% | 93.7% | 72.6% | 88.3% | 55.5% |
| Cc1ccc(Nc2nccc(N(C)c3ccc4c(C)n(C)nc4c3)n2)cc1S(N)(=O)=O [Pazopanib] + C[C@]12O[C@H](C[C@]1(O)CO)n1c3ccccc3c3c4c(c5c6ccccc6n2c5c31)CNC4=O [Lestaurtinib] (first compound 2 µM, partner dose 0.02 µM) | 71.3% | 62.1% | 101% | 56.5% | 106% | 85.1% | 92.7% | 63.5% | 66.7% | 81.5% | 52.2% | 90.9% | 80.1% | 65.1% | 88.6% | 56.1% | 82.4% | 83.4% | 72.8% | 76.4% |
| N#CC[C@H](C1CCCC1)n1cc(-c2ncnc3[nH]ccc23)cn1 [ruxolitinib] + N.N.[Cl][Pt][Cl] [cisplatin] (first compound 5 µM, partner dose 8 µM) | 15.5% | 44.7% | 53.7% | 39.9% | 23.3% | 69.4% | 27.9% | 69.4% | 12.8% | 28.9% | 7.82% | 5.22% | 94.5% | 66.4% | 72.6% | 61.2% | 66.8% | 67.1% | 47% | 91.9% |
| Cc1cc(SCc2sc(-c3ccc(C(F)(F)F)c(F)c3)nc2C)ccc1OCC(=O)O + c1cc(-c2cnn3cc(-c4ccc(OCCN5CCCCC5)cc4)cnc23)ccn1 [Dorsomorphin] (first compound 10 µM, partner dose 2 µM) | 64.9% | 90.5% | 89.5% | 72.9% | 92.1% | 89.6% | 83.6% | 77.4% | 85.7% | 168% | 53.8% | 87.5% | 80.5% | 57% | 63% | 64.4% | 73.7% | 80% | 65.1% | 93.1% |
| O=C(Nc1cc(C(F)(F)F)cc(C(F)(F)F)c1)c1cc(Cl)ccc1O + C[As](C)SC[C@H](NC(=O)CC[C@H](N)C(=O)O)C(=O)NCC(=O)O [Darinaparsin] (first compound 0.08 µM, partner dose 2 µM) | 82.5% | 85.4% | 117% | 71.4% | 116% | 90.1% | 92.5% | 85.1% | 113% | 93.6% | 80% | 116% | 89.2% | 63.4% | 83.8% | 80.5% | 87.2% | 72.3% | 95.9% | 68% |
| CN(C)S(=O)(=O)c1ccc2c(c1)/C(=C/c1cc3c([nH]1)CCCC3)C(=O)N2 + Cc1cc(SCc2sc(-c3ccc(C(F)(F)F)c(F)c3)nc2C)ccc1OCC(=O)O [GW0742] (first compound 2 µM, partner dose 10 µM) | 63.3% | 59.1% | 83.1% | 60.8% | 118% | 91.8% | 79.6% | 78.8% | 52.8% | 91.1% | 45.8% | 73.3% | 78.2% | 69.2% | 78.7% | 81.7% | 63.7% | 62.8% | 49.3% | 66.7% |
| Cc1cc(SCc2sc(-c3ccc(C(F)(F)F)c(F)c3)nc2C)ccc1OCC(=O)O + CCCCCCCCCCCC1=C(O)C(=O)C=C(O)C1=O [Embelin] (first compound 10 µM, partner dose 6 µM) | 81.8% | 64.9% | 70.6% | 70.4% | 140% | 76% | 79% | 110% | 79.9% | 77.3% | 79.8% | 85.3% | 102% | 109% | 88.9% | 106% | 84.9% | 71.1% | 72.8% | 100% |
